# In the supplement of paper PMC8728848:
# The other results are listed elsewhere or left out.
# B1: PNA (Arachis hypogaea), P02872 (protein)
# chain: MKPFCVFLTFFLLLAASSKKVDSAETVSFNFNSFSEGNPAINFQGDVTVLSNGNIQLTNLNKVNSVGRVLYAMPVRIWSSATGNVASFLTSFSFEMKDIKDYDPADGIIFFIAPEDTQIPAGSIGGGTLGVSDTKGAGHFVGVEFDTYSNSEYNDPPTDHVGIDVNSVDSVKTVPWNSVSGAVVKVTVIYDSSTKTLSVAVTNDNGDITTIAQVVDLKAKLPERVKFGFSASGSLGGRQIHLIRSWSFTSTLITTTRRSIDNNEKKIMNMASA
# Tests used:
# Assay in all cases: glycan array binding signal (z-score within array); higher = stronger binding
# Conditions in all cases: glycan notation: IUPAC condensed, linker removed
# [1] = molecular target: Neu5Ac(a2-6)Gal(b1-4)GlcNAc(b1-3)Gal(b1-4)GlcNAc(b1-3)Gal(b1-4)GlcNAc(b1-2)Man(a1-3)[Neu5Ac(a2-6)Gal(b1-4)GlcNAc(b1-3)Gal(b1-4)GlcNAc(b1-3)Gal(b1-4)GlcNAc(b1-2)Man(a1-6)]GalNAc
# Outline: (§1)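 Glycan array binding is given as a within-array Z-score, which can be read as non-binding when negative. The arrays, 3228 of them, came from the Consortium for Functional Glycomics database and were retained only where the protein sequence was available. Z-scores were averaged across arrays of the same protein sequence at different concentrations or buffers and across linkers.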
# [2] = molecular target: Neu5Ac(a2-6)Gal(b1-4)GlcNAc(b1-3)Gal(b1-4)GlcNAc(b1-3)GalNAc
# Outline: as §1
# [3] = molecular target: Neu5Ac(a2-6)Gal(b1-4)GlcNAc(b1-3)Gal(b1-4)GlcNAc(b1-3)[Neu5Ac(a2-6)Gal(b1-4)GlcNAc(b1-3)Gal(b1-4)GlcNAc(b1-6)]GalNAc
# Outline: as §1
# [4] = molecular target: Neu5Ac(a2-6)Gal(b1-4)GlcNAc(b1-3)Gal(b1-4)GlcNAc(b1-6)[Gal(b1-3)]GalNAc
# Outline: as §1
# [5] = molecular target: Neu5Ac(a2-6)Gal(b1-4)GlcNAc(b1-3)Gal(b1-4)[Fuc(a1-3)]Glc
# Outline: as §1
# [6] = molecular target: Neu5Ac(a2-6)Gal(b1-4)GlcNAc(b1-3)Gal(b1-4)[Fuc(a1-3)]GlcNAc(b1-3)Gal(b1-4)[Fuc(a1-3)]GlcNAc
# Outline: as §1
# [7] = molecular target: Neu5Ac(a2-6)Gal(b1-4)GlcNAc(b1-3)GalNAc
# Outline: as §1
# [8] = molecular target: Neu5Ac(a2-6)Gal(b1-4)GlcNAc(b1-3)[Neu5Ac(a2-6)Gal(b1-4)GlcNAc(b1-6)]Gal(b1-4)Glc
# Outline: as §1
# [9] = molecular target: Neu5Ac(a2-6)Gal(b1-4)GlcNAc(b1-3)[Neu5Ac(a2-6)Gal(b1-4)GlcNAc(b1-6)]GalNAc
# Outline: as §1
# [10] = molecular target: Neu5Ac(a2-6)Gal(b1-4)GlcNAc(b1-6)GalNAc
# Outline: as §1
# [11] = molecular target: Neu5Ac(a2-6)Gal(b1-4)GlcNAc(b1-6)[Gal(b1-3)GlcNAc(b1-3)]Gal(b1-4)Glc
# Outline: as §1
# [12] = molecular target: Neu5Ac(a2-6)Gal(b1-4)GlcNAc(b1-6)[Gal(b1-3)]GalNAc
# Outline: as §1
# [13] = molecular target: Neu5Ac(a2-6)Gal(b1-4)GlcNAc6S
# Outline: as §1
# [14] = molecular target: Neu5Ac(a2-6)Gal(b1-4)[Fuc(a1-3)]GlcNAc(b1-3)Gal(b1-4)Glc
# Outline: as §1
# [15] = molecular target: Neu5Ac(a2-6)Gal(b1-6)GalNAc(b1-4)Gal(b1-4)Glc
# Outline: as §1
# Neu5Ac(a2-6)Gal6S = molecular target: Neu5Ac(a2-6)Gal6S
# Outline: as §1
# [16] = molecular target: Neu5Ac(a2-6)Gal6S(b1-4)Glc
# Outline: as §1
# [17] = molecular target: Neu5Ac(a2-6)Gal6S(b1-4)Glc4S
# Outline: as §1
# Neu5Ac(a2-6)GalNAc = molecular target: Neu5Ac(a2-6)GalNAc
# Outline: as §1
# [18] = molecular target: Neu5Ac(a2-6)GalNAc(b1-4)GlcNAc
# Outline: as §1
# [19] = molecular target: Neu5Ac(a2-6)GalNAc(b1-4)GlcNAc6S
# Outline: as §1
# Neu5Ac(a2-6)Glc = molecular target: Neu5Ac(a2-6)Glc
# Outline: as §1
# Neu5Ac(a2-6)Glc6S = molecular target: Neu5Ac(a2-6)Glc6S
# Outline: as §1
# Neu5Ac(a2-6)GlcNAc = molecular target: Neu5Ac(a2-6)GlcNAc
# Outline: as §1
# [20] = molecular target: Neu5Ac(a2-6)GlcNAc(b1-4)GlcNAc
# Outline: as §1
# [21] = molecular target: Neu5Ac(a2-6)GlcNAc(b1-4)GlcNAc(b1-4)GlcNAc
# Outline: as §1
# Neu5Ac(a2-6)GlcNAc6S = molecular target: Neu5Ac(a2-6)GlcNAc6S
# Outline: as §1
# Neu5Ac(a2-8)Neu5Ac = molecular target: Neu5Ac(a2-8)Neu5Ac
# Outline: as §1
# [22] = molecular target: Neu5Ac(a2-8)Neu5Ac(a2-3)Gal
# Outline: as §1
binder,measurement,setting,value
B1,glycan array binding signal (z-score),[1],0.362
same,glycan array binding signal (z-score),[2],-0.158
same,glycan array binding signal (z-score),[3],0.626
same,glycan array binding signal (z-score),[4],0.977
same,glycan array binding signal (z-score),[5],-0.195
same,glycan array binding signal (z-score),[6],-0.073
same,glycan array binding signal (z-score),[7],-0.192
same,glycan array binding signal (z-score),[8],-0.195
same,glycan array binding signal (z-score),[9],-0.304
same,glycan array binding signal (z-score),[10],-0.286
same,glycan array binding signal (z-score),[11],-0.158
same,glycan array binding signal (z-score),[12],0.889
same,glycan array binding signal (z-score),[13],-0.105
same,glycan array binding signal (z-score),[14],-0.195
same,glycan array binding signal (z-score),[15],-0.195
same,glycan array binding signal (z-score),Neu5Ac(a2-6)Gal6S,-0.195
same,glycan array binding signal (z-score),[16],-0.195
same,glycan array binding signal (z-score),[17],-0.195
same,glycan array binding signal (z-score),Neu5Ac(a2-6)GalNAc,-0.184
same,glycan array binding signal (z-score),[18],-0.205
same,glycan array binding signal (z-score),[19],-0.311
same,glycan array binding signal (z-score),Neu5Ac(a2-6)Glc,-0.195
same,glycan array binding signal (z-score),Neu5Ac(a2-6)Glc6S,-0.195
same,glycan array binding signal (z-score),Neu5Ac(a2-6)GlcNAc,-0.195
same,glycan array binding signal (z-score),[20],-0.234
same,glycan array binding signal (z-score),[21],-0.123
same,glycan array binding signal (z-score),Neu5Ac(a2-6)GlcNAc6S,-0.195
same,glycan array binding signal (z-score),Neu5Ac(a2-8)Neu5Ac,-0.155
same,glycan array binding signal (z-score),[22],-0.195
